The campaign covered roughly 110,000 compounds. About 230 (0.21%) showed an effect of 50% or more. This is one part of the list.
Target: DPAP1 (Plasmodium falciparum, UniProt Q8IIJ9)
Assay: primary screen, percent inhibition; read by cleavage of a fluorogenic dipeptide substrate; higher = more effect of the substance
Parameters: species or system P. falciparum D10 trophozoite lysates; single well
Experimental: HTS was performed in black 384-well plates. The first and last two columns of each plate contained our negative (DMSO) and positive (10 μM JCP410) controls, and the 20 central columns the test compounds at 10 μM. Compounds were first diluted 50-fold into assay buffer (50 mM sodium acetate, 5 mM MgCl2, 10 mM β-mercaptoethanol, and 0.1% CHAPS, pH 5.5) from a 10 mM DMSO stock plates. One microliter of this 200 μM intermediate stock plate was dispensed into the assay plate. […] After 30 min, the reaction was quenched with 20 μL of 0.5 M acetic acid, and the fluorescent intensity measured at 523 nm (λex = 492 nm) using an Analyst HT multimode plate reader (Molecular Devices).
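Further: 30 min substrate incubation versus DMSO and 10 µM JCP410 controls.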

Sequence of DPAP1 (Q8IIJ9 whole entry, looked up): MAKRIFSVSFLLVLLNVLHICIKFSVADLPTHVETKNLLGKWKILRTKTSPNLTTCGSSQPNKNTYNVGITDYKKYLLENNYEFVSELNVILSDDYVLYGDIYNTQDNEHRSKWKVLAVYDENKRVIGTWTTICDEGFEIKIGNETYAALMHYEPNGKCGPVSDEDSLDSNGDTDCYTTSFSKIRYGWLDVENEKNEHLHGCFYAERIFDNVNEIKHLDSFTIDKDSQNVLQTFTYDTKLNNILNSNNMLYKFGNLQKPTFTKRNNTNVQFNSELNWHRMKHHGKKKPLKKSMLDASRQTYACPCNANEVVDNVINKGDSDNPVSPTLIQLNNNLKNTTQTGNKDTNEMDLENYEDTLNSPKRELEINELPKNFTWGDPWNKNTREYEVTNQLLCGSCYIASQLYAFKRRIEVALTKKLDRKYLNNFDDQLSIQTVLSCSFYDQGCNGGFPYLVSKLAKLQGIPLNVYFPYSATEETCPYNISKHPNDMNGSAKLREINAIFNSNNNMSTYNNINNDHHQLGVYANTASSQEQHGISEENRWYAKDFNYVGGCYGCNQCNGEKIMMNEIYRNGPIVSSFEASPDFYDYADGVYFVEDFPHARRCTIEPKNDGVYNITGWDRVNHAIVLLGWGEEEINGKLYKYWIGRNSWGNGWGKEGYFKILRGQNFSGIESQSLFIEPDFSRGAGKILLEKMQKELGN

SMILES | % Inhibition @ 10 uM
CC(=O)c1ccc(N2C(=O)c3cccc4cc(Br)cc(c34)C2=O)cc1 | 11.3%
CC(C)(C)C1CCc2onc(C(=O)NCCc3ccccc3)c2C1 (stereo not shown) | -0.591%
Cc1sc(-n2cccc2CNCc2cccs2)c(C(=O)O)c1C | -3.57%
C=Cc1ccc(Cn2c(C(=O)O)c(CNC3CCC(C)CC3)c3ccccc32)cc1 (stereo not shown) | 1.93%
COc1cc(/C=C2/C(=N)N3OC(C)=CC3=NC2=O)ccc1O | -1.43%
Cc1[nH]c2ccccc2c1SCCNC(=O)COc1ccccc1 | -3.27%
Cc1ccc(C2=C/C(=C\c3ccccc3C)C(=O)O2)cc1 | -6.87%
CCn1c2ccccc2c2cc(CN3CCN(S(=O)(=O)c4ccc(OC)cc4)CC3)ccc21 | 22.9%
COCCN1C(=O)/C(=C\c2cc3c(cc2Br)OCO3)S/C1=N\c1ccccc1 | 17.6%
COc1cc(/C=C2\C(=N)N3N=C(N4CCCC4)SC3=NC2=O)ccc1OCc1ccccc1F | 1.72%
Clc1ccc2scc(CN3CCCCC3)c2c1 | -2.45%
Cc1ccc(N2C(=O)C(Cl)=C(N3CCCCC3)C2=O)cc1Cl | -5.34%
CC(=O)c1sc(N2C(=O)c3oc4ccc(F)cc4c(=O)c3C2c2ccc(C(C)C)cc2)nc1C (stereo not shown) | 5.3%
COc1ccc(NC(=O)c2c(NC(=O)c3cccs3)sc3c2CCCC3)c(OC)c1 | -4.68%
COc1cccc(N(CC(=O)Nc2cccc(C)c2)S(=O)(=O)c2ccc(C)cc2)c1 | 0.00477%
CNC(=O)C1C(S)=NC(N)=C(C#N)C1c1ccccc1 (stereo not shown) | 0.746%
Nc1cc(S(=O)(=O)c2ccc(O)c(N)c2)ccc1O | -2.66%
COCCCNC(=O)Cn1cnc2sc(C)cc2c1=O | -5.76%
COc1cc(/C=c2\sc3nc(=O)c(C)nn3c2=O)ccc1OCCC(C)C | -3.06%
N#CC1=C(N)N(c2ccc(F)cc2)C2=C(C(=O)CCC2)C1c1cccs1 (stereo not shown) | 0.751%
CCCCn1c(SCC(=O)Nc2c(C)cccc2C)nc2c1c(=O)n(C)c(=O)n2C | 3.19%
O=C1CS/C(=N\c2ccccc2)N1c1ccccc1 | -2.51%
c1ccc2c(c1)c(NC1CCCCCCC1)nn1nnnc21 | 0.368%
C=CCN(c1nc(C)cc(OC)n1)S(=O)(=O)c1ccc(C)cc1 | -2.03%
CC(N)CNc1ccc([N+](=O)[O-])c2cccnc12 (stereo not shown) | 2.17%

SMILES | % Inhibition @ 10 uM
CC1=CC2=NC(=O)/C(=C\c3cccn3CCOc3ccccc3)C(=N)N2O1 | -1.43%
CC[C@H](NC(=O)[C@H](Cc1c(F)cccc1F)NC(=O)c1ccc(-c2ccccc2Cl)nc1)C(=O)c1nc2ccccc2o1 | -0.207%
CC(=O)c1cnc2cc(-c3ccccc3)nn2c1C | 6.21%
COC(=O)C1=C(C(=O)OC)SC(=C2C(=S)C(C)(C)Nc3cc(C)ccc32)S1 | -2%
Cc1cc(C)c(C#N)c(SCC(=O)N2CCCCC2)n1 | 16.7%
CCC(NS(=O)(=O)c1ccc(Cl)cc1)C(=O)O (stereo not shown) | -0.902%
Cc1cccc(NC(=O)CN(C2CCCCC2)S(C)(=O)=O)c1C | -6.62%
O=C(NCCN1CCCCCC1)c1cc2c(s1)-c1ccccc1OC2 | 4.95%
CCn1cc(/C=C(\NC(=O)c2ccc(C)cc2)C(=O)NCCCN2CCOCC2)c2ccccc21 | -3.52%
O=C1CC(c2ccccc2)CC(=O)C1=CNCc1ccncc1 (stereo not shown) | -0.142%
CCOC(=O)c1c(C)[nH]c(C)c1S(=O)(=O)N1CCC(C(=O)NCCC2=CCCCC2)CC1 | -8.67%
Cn1ncc2c(NCC3CCCO3)ncnc21 (stereo not shown) | -1.1%
O=C(NCCC1=CCCCC1)C1CCCN(S(=O)(=O)c2ccc3nc(O)ccc3c2)C1 (stereo not shown) | -3.43%
CCOCCCN1CC(C(=O)NCCc2ccccc2)CC1=O (stereo not shown) | -4.83%
O=c1cc(-c2ccc(Cl)cc2)sc2nnc(-c3ccncc3)n12 | 3.47%
Brc1ccc(-c2cn3ncsc3n2)cc1 | 0.548%
Cc1cccc(C)c1NC(=O)CSc1nc(N)cc(O)n1 | -0.116%
CC(=O)c1ccc(NC(=O)COc2ccc(C)cc2Br)cc1 | -2.03%
CC(C)C[C@H](NC(=O)c1cccc(-c2ccccc2S(C)(=O)=O)c1)C(=O)NCC#N | 1.35%
O=C(Nc1ccc(-c2noc(-c3cccs3)n2)cc1)c1cccc(Br)c1 | 1.19%
CC(=O)N1CCN(CC(C)c2ccccc2)CC1 (stereo not shown) | -3.8%
CC(C)Cn1c(=O)c2ccccc2n2c(CCC(=O)N3CCN(C(=O)c4ccco4)CC3)nnc12 | -2.42%
Clc1ccc(CN2CCN(c3ccccc3)CC2)c(Cl)c1 | -3.56%
COc1ccc(C(=O)Cn2ccnc2C(=O)N2CCN(c3ccccn3)CC2)cc1 | 6.31%

Reference: paper PMC6919601, “Identification of Plasmodium dipeptidyl aminopeptidase allosteric inhibitors by high throughput screening” (PLoS ONE, 2019)
